Laboratory results as given in PubChem BioAssay AID886 (National Center for Advancing Translational Sciences (NCATS), 2007).
In all, about 73,000 compounds went through this assay and about 2,500 (3.4%) were called active. The shares of active, inactive and inconclusive entries below differ from those in the screen. The call rests on the fitted dose curve; in most records, active means well fitted inhibition curve with a large enough effect; inconclusive means small, poorly fitted or top-dose-only effect; inactive means no such curve, though single readings can be large or run the other way. Potencies beside an inconclusive call are fits to weak or partial responses and may not hold up.

molecular target: 3-hydroxyacyl-CoA dehydrogenase type-2 (Homo sapiens) (UniProt Q99714); assay: qHTS Assay for Inhibitors of HADH2 (Hydroxyacyl-Coenzyme A Dehydrogenase, Type II); conditions: recombinant HADH2, NADH fluorescence, beta-hydroxybutyryl-CoA; activity change, negative = inhibition: at 57.1 µM (top of the series); further: nearly all actives have a fitted effect of over 60% in size
Sequence of UniProt Q99714 (Q99714 whole entry, looked up): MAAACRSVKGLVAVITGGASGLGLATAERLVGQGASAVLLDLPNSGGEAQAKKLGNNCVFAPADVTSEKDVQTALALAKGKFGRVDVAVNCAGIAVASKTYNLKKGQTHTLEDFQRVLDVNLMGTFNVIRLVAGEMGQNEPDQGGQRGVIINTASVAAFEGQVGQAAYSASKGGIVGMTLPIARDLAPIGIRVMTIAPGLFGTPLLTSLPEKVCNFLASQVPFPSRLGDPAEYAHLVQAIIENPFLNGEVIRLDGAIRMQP
Sequence of UniProt Q99714 (Q99714 whole entry, looked up): as above
Method in brief: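 NADH fluorescence (ex 360/em 450 nm) read every 30 s for 4 min; activity taken as last-minus-first time point difference. Enzyme 20 nM, NAD+ 1 mM, beta-hydroxybutyryl-CoA 90 uM, pH 9.0 Tris buffer.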
On the % scale 0 is the no-effect control and ±100 the full control effect; potency means the concentration at half of the fitted maximal effect; tags describe the fitted curve by direction and shape.

Row | SMILES | activity change, negative = inhibition | Potency
1 | COc1ccc(S(=O)(=O)N2CCC(C(=O)c3ccc4c(c3)OCCO4)CC2)cc1 | inactive: 8.8% | –
2 | COc1cc2[nH]c3c(=O)n(CCN4CCCCC4)cnc3c2cc1OC | – | inconclusive: 39.8 µM [inhibitor, single point]
3 | N#Cc1cccc(-c2cncnc2NCc2cccnc2)c1 | – | inconclusive: 39.8 µM [inhibitor, single point]
4 | CCCOc1cccc(C(=O)Nc2cccnc2)c1 | inactive: 7.75% [at 11.4 µM] | –
5 | Cc1nn(-c2ccc(Cl)cc2)c2sc(C(=O)N3CCN(C(=O)c4ccco4)CC3)cc12 | inactive: 4.46% | –
6 | CCOC(=O)CSC1=C(C#N)C(c2ccco2)C(C(=O)Nc2cccc(C(F)(F)F)c2)=C(C)N1 (stereo not given) | – | inconclusive: 39.8 µM [inhibitor, single point]
7 | O=c1oc(-c2ccccc2)nc2c1cnn2-c1ccccc1 | – | inconclusive: 31.6 µM [inhibitor, single point]
8 | Cc1cc2c(cc1C)NC(CC(=O)NCc1ccccc1)C(=O)N2 (stereo not given) | – | active: 5.01 µM
9 | COc1ccc(N(Cc2cc3cc(OC)ccc3[nH]c2=O)C(=O)c2cccnc2)cc1 | – | inconclusive: 39.8 µM [inhibitor, single point]
10 | CCOC(=O)N1CCN(C(=O)CSc2nnc(-c3cccc(OC)c3)o2)CC1 | – | inconclusive: 39.8 µM [inhibitor, single point]
11 | CS(=O)(=O)Nc1cccc(-c2cncnc2Nc2ccc(F)cc2)c1 | – | inconclusive: 15.8 µM [inhibitor, partial curve]
12 | COc1ccccc1-c1nnc2sc(-c3cnccn3)nn12 | – | inconclusive: 31.6 µM [inhibitor, single point]
13 | CCc1cccc(N(C)C(N)=Nc2cccc3ccccc23)c1 | inactive: 11% | –
14 | Cc1cc(C)c2c(c1)-c1cc(C)nn1C(c1ccc3c(c1)OCO3)N2 (stereo not given) | – | inconclusive: 31.6 µM [inhibitor, single point]
15 | O=C(Nc1nc(-c2nc3ccccc3s2)cs1)c1ccc(S(=O)(=O)N2CCOCC2)cc1 | – | inconclusive: 39.8 µM [inhibitor, single point]
16 | CC(O)c1c(OCc2ccccc2)ncnc1OCc1ccccc1 (stereo not given) | inactive: -5.85% | –
17 | COc1cccc(-c2cncnc2NCc2cnc(C)cn2)c1 | – | inconclusive: 39.8 µM [inhibitor, single point]
18 | O=c1[nH]c2cc3c(cc2cc1C(c1nnnn1CC1CCCO1)N1CCCC1)OCO3 (stereo not given) | – | inconclusive: 31.6 µM [inhibitor, single point]
19 | CCCC(=O)OCC(=O)Nc1cc(C(C)(C)C)nn1-c1ccccc1 | inactive: 15.8% | –
20 | C=CCn1c(-c2ccoc2)n[nH]c1=S | – | inconclusive: 31.6 µM [inhibitor, single point]
